Assay results published in the antibiotic and cytotoxicity screens of Wong et al. (2023).
This is one part of the list.

Each molecule was assayed on S. aureus RN4220 (assay: growth inhibition call (relative growth <= 0.2)). Conditions: 50 µM.

Row | SMILES | growth inhibition call
1 | CC(C)NC(=O)Nc1ccc2c(c1)CC(=O)N([C@H](C)CO)C[C@H](C)[C@@H](CN(C)C(=O)NC1CCCCC1)O2 | inactive
2 | COc1ccc(CNC(=O)C[C@H]2CC[C@@H]3[C@H](COc4ccc(NC(=O)C5CC5)cc4C(=O)N3C)O2)cc1 | inactive
3 | C[C@@H]1CN([C@@H](C)CO)C(=O)c2cc(NS(=O)(=O)c3ccc(Cl)cc3)ccc2O[C@@H]1CN(C)Cc1ccc(Oc2ccccc2)cc1 | inactive
4 | CCOC(=O)OC(C)OC1=C(C(=O)Nc2ccccn2)N(C)S(=O)(=O)c2ccccc21 (stereo not given) | inactive
5 | C[C@H]1CN([C@@H](C)CO)C(=O)Cc2cc(NC(=O)Cn3cnnn3)ccc2O[C@H]1CN(C)Cc1ccc(C(=O)O)cc1 | inactive
6 | Cc1noc(C)c1S(=O)(=O)Nc1ccc2c(c1)CC(=O)N([C@H](C)CO)C[C@H](C)[C@@H](CN(C)C(=O)NC1CCCCC1)O2 | inactive
7 | O=C(O)CCc1nc(-c2ccccc2)c(-c2ccccc2)o1 | inactive
8 | CC(C)=CCC/C(C)=C/C(=O)O | inactive
9 | CNC[C@H]1OCCCC[C@@H](C)Oc2ccc(NC(=O)Nc3cccc4ccccc34)cc2C(=O)N([C@@H](C)CO)C[C@H]1C | inactive
10 | CCOc1ccc2ccccc2c1C(=O)NC1C(=O)N2C1SC(C)(C)C2C(=O)[O-].[Na+] (stereo not given) | active
11 | C[C@@H]1CN([C@@H](C)CO)C(=O)c2cc(NC(=O)Nc3ccc4c(c3)OCO4)ccc2O[C@@H](C)CCCCO[C@H]1CN(C)Cc1ccccc1 | inactive
12 | Cc1noc(C)c1NC(=O)N(C)C[C@@H]1OCCCC[C@H](C)Oc2ccc(NS(=O)(=O)c3ccccc3)cc2C(=O)N([C@H](C)CO)C[C@@H]1C | inactive
13 | CCCN(C)C[C@H]1OCCCC[C@H](C)Oc2ccc(NC(=O)Nc3ccc(F)cc3)cc2C(=O)N([C@@H](C)CO)C[C@H]1C | inactive
14 | CCCCCC(CC(=O)O)C(=O)O (stereo not given) | inactive
15 | CC1(C)NCS[C@H]1C(=O)O | inactive
16 | O=C(C[C@H]1CC[C@@H]2[C@H](COC[C@H](O)CN2S(=O)(=O)c2ccc(Cl)cc2)O1)NCCN1CCCC1 | inactive
17 | Cc1noc(C)c1S(=O)(=O)Nc1ccc2c(c1)C(=O)N([C@@H](C)CO)C[C@@H](C)[C@H](CN(C)C(=O)Nc1cccc3ccccc13)OCCCC[C@H](C)O2 | inactive
18 | CN(C)CCOc1ccc(C#N)cn1 | inactive
19 | CCC1(O)CC2CN(CCc3c([nH]c4ccccc34)C(C(=O)OC)(c3cc4c(cc3OC)N(C)C3C(O)(C(=O)OC)C(OC(C)=O)C5(CC)C=CCN6CCC43C65)C2)C1.O=S(=O)(O)O (stereo not given) | inactive
20 | Cc1noc(C)c1NC(=O)Nc1cccc2c1O[C@H](CN(C)C(=O)NC(C)C)[C@H](C)CN([C@H](C)CO)C2=O | inactive

Row | SMILES | growth inhibition call
21 | COc1ccc(CN(C)C[C@@H]2OCCCC[C@H](C)Oc3ccc(NC(=O)c4ccccc4)cc3C(=O)N([C@H](C)CO)C[C@H]2C)cc1 | inactive
22 | C[C@H]1CCCCO[C@@H](CN(C)C(=O)Nc2ccc(F)cc2)[C@@H](C)CN([C@@H](C)CO)C(=O)c2cc(NS(=O)(=O)c3ccccc3)ccc2O1 | inactive
23 | Cc1cc(C(=O)Nc2cccc3c2O[C@H](CN(C)C(=O)Nc2c(C)noc2C)[C@H](C)CN([C@H](C)CO)C3=O)n(C)n1 | inactive
24 | C[C@@H]1CN([C@H](C)CO)C(=O)c2cc(NC(=O)CCC(F)(F)F)ccc2O[C@@H](C)CCCCO[C@@H]1CN(C)Cc1ccc2c(c1)OCO2 | inactive
25 | COc1ccc(NC(=O)N(C)C[C@@H]2Oc3ccc(NC(=O)CCCCCC(=O)Nc4ccccc4N)cc3C(=O)N([C@H](C)CO)C[C@H]2C)cc1 | inactive
26 | C[C@@H]1CN([C@H](C)CO)C(=O)c2cc(NC(=O)Nc3ccc4c(c3)OCO4)ccc2O[C@@H](C)CCCCO[C@@H]1CN(C)S(=O)(=O)c1cccs1 | inactive
27 | C[C@@H]1CNS(=O)(=O)CO1 | inactive
28 | C[C@H](NC(=O)N(C)C[C@@H]1OCc2ccccc2-c2c(n(C)c3ccccc23)C(=O)N([C@H](C)CO)C[C@@H]1C)c1ccccc1 | inactive
29 | CNC(=NCc1ccc(OC)cc1)NC | inactive
30 | C[C@@H]1CN([C@@H](C)CO)C(=O)c2cc(NC(=O)Nc3cccc4ccccc34)ccc2O[C@@H](C)CCCCO[C@H]1CN(C)S(=O)(=O)c1ccc(F)cc1 | inactive
31 | COc1ccc([Si](C)(C)[C@H]2[C@H](CCOC(=O)NCCCCCC(=O)NO)O[C@@]3(C(=O)N(Cc4ccccc4)c4ccc(I)cc43)[C@@H]2C)cc1 | inactive
32 | Cc1noc(C)c1S(=O)(=O)Nc1ccc2c(c1)C(=O)N([C@H](C)CO)C[C@H](C)[C@H](CN(C)S(=O)(=O)c1cn(C)cn1)O2 | inactive
33 | C[C@@H]1CCCCO[C@@H](CN(C)C(=O)c2ccncc2)[C@@H](C)CN([C@H](C)CO)C(=O)c2cc(NC(=O)CCCCCC(=O)Nc3ccccc3N)ccc2O1 | inactive
34 | C[C@H](CO)N1C[C@H](C)[C@@H](CN(C)C(=O)Nc2ccc(F)cc2)Oc2ccc(NC(=O)Nc3ccc(C(F)(F)F)cc3)cc2C1=O | inactive
35 | Nc1ncccc1-c1nc2ccc(-c3ccccc3)nc2n1-c1ccc(C2(N)CCC2)cc1 | inactive
36 | COc1ccc(NC(=O)N(C)C[C@H]2Oc3c(NS(=O)(=O)c4cn(C)cn4)cccc3C(=O)N([C@@H](C)CO)C[C@@H]2C)cc1 | inactive
37 | C[C@@H]1CCCCO[C@H](CN(C)C(=O)Cc2ccccc2)[C@H](C)CN([C@H](C)CO)C(=O)c2cc(NS(=O)(=O)c3ccc(F)cc3)ccc2O1 | inactive
38 | CCOC(=O)[C@H]1CCCN([C@H]2CS(=O)(=O)C[C@@H]2S(=O)(=O)c2ccccc2)C1 | inactive
39 | COc1ccccc1CNC(=O)C[C@H]1C[C@H]2c3cc(NC(=O)C4CCOCC4)ccc3O[C@H]2[C@H](CO)O1 | inactive
40 | CC(C)(C)[S@](=O)N1Cc2cc(C(=O)NCc3ccc4c(c3)OCO4)nc(-c3cccc(-c4ccncc4)c3)c2[C@@H]1CCO | inactive
